IC50 is the fitted dose that halves viability relative to control wells, and lower means more sensitive; a limit (>, <) means that the fit lies beyond the doses tested. The AUC spans the tested range (256-fold, ending at the top dose) of the same fit; values near 1 show little effect. An inferred top dose was derived from the fitted curves, not read from the paper. Where an entry number is given, a second screen of the drug exists; the two often differ.

Compound in the first test: NC(=O)[C@@H](CCC(F)(F)F)N(Cc1ccc(-c2ncon2)cc1F)S(=O)(=O)c1ccc(Cl)cc1 [BMS-708163]
Briefly: Viability of human cancer cell lines after 72 h of drug (GDSC screen). The settings on record: screen: GDSC drug entry 205; top dose inferred. The protocol: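 Human cancer cell lines in 384-well plates, medium with 10% serum, drug for 72 h over a 256-fold dose range (nine 2-fold or five 4-fold steps up to the top dose). Adherent lines were fixed and stained with the nucleic acid dye Syto60, suspension lines read with resazurin; signal relative to control wells, capped at 0 and 100%. One two-parameter sigmoid per drug and line, fitted in a mixed model over all curves with the slope shared within a line.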
What is called IC50 is the concentration that inhibits the measured activity by half. For “KCL-22 (chronic myeloid leukaemia, suspension, top dose 10.24 µM)”, the AUC was 0.991 and the IC50 is more than 10.2 µM.

As for “KE-37 (lymphoblastic leukaemia, suspension, top dose 2.56 µM)”, the AUC came out at 0.993 and the IC50 was more than 2.56 µM.

“KELLY (neuroblastoma, adherent, top dose 10.24 µM)”: the AUC worked out at 0.989 and the IC50 was more than 10.2 µM.

As to “KG-1 (acute myeloid leukaemia, suspension, top dose 10.24 µM)”, the AUC stood at 0.989 and the IC50 is more than 10.2 µM.

On to “KGN (ovary, adherent, top dose 10.24 µM)”, for which the AUC was determined as 0.953 and the IC50 was more than 10.2 µM.

As to “KINGS-1 (glioma, adherent, top dose 10.24 µM)”, the AUC turned out to be 0.974 and the IC50 was more than 10.2 µM.

With “KLE (endometrium, adherent, top dose 10.24 µM)”, the AUC came out at 0.978 and the IC50 is more than 10.2 µM.

For the cell line “KM12 (large intestine, adherent, top dose 2.56 µM)”, the AUC turned out to be 0.986 and the IC50 is more than 2.56 µM.

For the cell line “KM-H2 (Hodgkin lymphoma, suspension, top dose 10.24 µM)”, the AUC stood at 0.993 and the IC50 is more than 10.2 µM.

For “KMH-2 (thyroid, adherent, top dose 10.24 µM)”, the AUC came to 0.974 and the IC50 is more than 10.2 µM.

In the case of “KMOE-2 (acute myeloid leukaemia, suspension, top dose 10.24 µM)”, the AUC stood at 0.987 and the IC50 was more than 10.2 µM.

With “KMRC-1 (kidney, adherent, top dose 10.24 µM)”, the AUC was 0.987 and the IC50 is more than 10.2 µM.

In the case of “KMRC-20 (kidney, adherent, top dose 10.24 µM)”, the AUC came to 0.987 and the IC50 is more than 10.2 µM.

Regarding “KMS-11 (myeloma, suspension, top dose 10.24 µM)”, the AUC stood at 0.991 and the IC50 was more than 10.2 µM.

Consider “KMS-12-BM (myeloma, suspension, top dose 10.24 µM)”, for which the AUC was determined as 0.991 and the IC50 is more than 10.2 µM.

Take “KNS-42 (glioma, adherent, top dose 10.24 µM)”: the AUC amounted to 0.984 and the IC50 is more than 10.2 µM.

With “KNS-81-FD (glioma, adherent, top dose 10.24 µM)”, the AUC turned out to be 0.965 and the IC50 is more than 10.2 µM.

For the cell line “KON (head and neck, adherent, top dose 10.24 µM)”, the AUC was determined as 0.987 and the IC50 is more than 10.2 µM.

Regarding “KOPN-8 (B-cell leukaemia, suspension, top dose 10.24 µM)”, the AUC was determined as 0.99 and the IC50 is more than 10.2 µM.

Regarding “KOSC-2 (head and neck, adherent, top dose 10.24 µM)”, the AUC is 0.961 and the IC50 was more than 10.2 µM.

As to “KP-2 (pancreas, adherent, top dose 10.24 µM)”, the AUC amounted to 0.975 and the IC50 is more than 10.2 µM.

Take “KP-3 (pancreas, adherent, top dose 10.24 µM)”: the AUC turned out to be 0.984 and the IC50 was more than 10.2 µM.

“KP-4 (pancreas, adherent, top dose 10.24 µM)”: the AUC was 0.985 and the IC50 is more than 10.2 µM.

Take “KP-N-YN (neuroblastoma, adherent, top dose 10.24 µM)”: the AUC turned out to be 0.986 and the IC50 was more than 10.2 µM.

The test is the same for the next values; noted with them: top dose 5 µM; screen: GDSC drug entry 1072; top dose inferred.
As to KATOIII (stomach, semi-adherent), the AUC amounted to 0.969 and the IC50 is more than 5 µM.

Consider KMS-11 (myeloma, suspension), for which the AUC stood at 0.976 and the IC50 is more than 5 µM.

As to “KNS-62 (lung squamous cell carcinoma, adherent)”, the AUC amounted to 0.979 and the IC50 was more than 5 µM.

Values taken from the supplement of paper PMC4967469.
